# Results: PubChem BioAssay AID1460 (National Center for Advancing Translational Sciences (NCATS), 2008)
# In all, about 270,000 compounds went through this assay and about 5,800 (2.1%) were called active. The inconclusive results got no clear call from the source; some entries with a clear call stand among them for comparison. Calls come from the whole dose curve; as a rule, active = well fitted inhibition curve with a large enough effect; inconclusive = small, poorly fitted or top-dose-only effect; inactive = flat fitted curve, though single readings scatter. Potencies beside an inconclusive call are fits to weak or partial responses and may not hold up. Some structures have more than one record in an assay (separate samples or runs), and their calls can disagree.
# Target: Microtubule-associated protein tau (Homo sapiens) (UniProt P10636)
# Test: qHTS for Inhibitors of Tau Fibril Formation, Thioflavin T Binding; note: nearly all actives have a fitted effect of over 55% in size
# Conditions: recombinant tau K18 P301L (four-repeat tau fragment), heparin-induced fibrillization, ThT fluorescence; series mostly up to 57.4 µM; activity, negative = inhibition: at the top concentration
# Outline: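 In this qHTS, human K18 P301L tau is incubated with compound and heparin for 6 hr at 37 C, and Thioflavin T fluorescence then reports fibril load.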
# % is set by controls: 0 for no effect and ±100 for the full control effect; potency is the fitted concentration of half-maximal effect; tags give direction and shape of the fitted curve.
# Sequence of UniProt P10636 (P10636 whole entry, looked up): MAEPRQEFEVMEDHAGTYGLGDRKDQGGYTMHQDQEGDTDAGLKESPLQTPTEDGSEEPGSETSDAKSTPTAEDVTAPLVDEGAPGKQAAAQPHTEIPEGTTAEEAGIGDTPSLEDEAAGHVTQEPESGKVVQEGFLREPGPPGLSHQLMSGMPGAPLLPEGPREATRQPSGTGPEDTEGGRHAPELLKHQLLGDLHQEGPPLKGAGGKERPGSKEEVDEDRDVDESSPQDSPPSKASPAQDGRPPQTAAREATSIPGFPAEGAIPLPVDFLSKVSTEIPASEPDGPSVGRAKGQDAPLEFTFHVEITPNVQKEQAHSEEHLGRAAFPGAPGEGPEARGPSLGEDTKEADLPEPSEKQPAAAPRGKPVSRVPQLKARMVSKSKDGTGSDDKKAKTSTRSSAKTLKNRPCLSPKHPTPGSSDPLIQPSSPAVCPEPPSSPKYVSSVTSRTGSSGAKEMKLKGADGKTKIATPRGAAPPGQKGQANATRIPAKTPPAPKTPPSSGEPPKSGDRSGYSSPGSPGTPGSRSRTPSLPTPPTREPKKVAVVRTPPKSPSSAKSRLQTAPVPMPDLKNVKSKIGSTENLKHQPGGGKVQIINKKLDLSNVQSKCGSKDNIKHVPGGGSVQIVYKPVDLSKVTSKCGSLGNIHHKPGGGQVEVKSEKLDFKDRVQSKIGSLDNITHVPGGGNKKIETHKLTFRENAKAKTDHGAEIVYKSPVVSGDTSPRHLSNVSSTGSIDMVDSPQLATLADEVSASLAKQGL
SMILES,"activity, negative = inhibition",Potency
COc1ccc(C2C(=O)c3ccccc3C2=Nc2ccc(Br)cc2)cc1 (stereo not given),inactive: 7.45%,–
Cc1ccc[n+](-c2nc3ccccc3nc2C(=C=[N-])C#N)c1,–,"inconclusive: 20 µM [inhibitor, partial curve, poor fit]"
O=C(NCCc1ccc(Cl)cc1)C1CCN(S(=O)(=O)N2CCCCC2)CC1,–,"inconclusive: 2.82 µM [inhibitor, full curve]"
Oc1ccc(NC(=S)N=Nc2c(O)[nH]c3ccccc23)cc1,–,active: 14.1 µM
CCN(CC)CCc1c(C)[nH]c(C(=O)OCc2ccccc2)c1C,inactive: -9.35%,–
Cn1c(CCC(=O)OCC(=O)Nc2ccc(Oc3ccccc3)cc2)nc(=O)c2ccccc21,–,"inconclusive: 3.55 µM [inhibitor, full curve]"
Oc1cc2c(cc1O)[C@H](c1ccccc1)CNCC2,–,"inconclusive: 17.8 µM [inhibitor, partial curve, poor fit]"
COC(=O)CC1Oc2cc3oc4c5ccccc5oc(=O)c4c3cc2O1 (stereo not given),–,"inconclusive: 0.316 µM [inhibitor, full curve, poor fit]"
CCOC(=O)CNCCC(=O)c1ccc(Br)cc1,–,"inconclusive: 12.6 µM [inhibitor, partial curve]"
O=C(O)c1c(-c2ccc(Cl)cc2)cn2ccccc12,–,"inconclusive: 4.47 µM [inhibitor, partial curve, poor fit]"
CCN(CC)CCCN1C=C2C(=O)C(C)(OC(=O)CCc3ccccc3)C(=O)C=C2C=C1c1ccc(C#N)cc1 (stereo not given),inactive: -4.74% [at 11.5 µM],active: 12.6 µM
COc1ccc(C(=O)OCC(N)=O)cc1[N+](=O)[O-],inactive: 5.44%,–
Cc1ccc(CNc2ccc(N3C(=O)CCCC3=O)cc2[N+](=O)[O-])cc1,–,"inconclusive: 20 µM [inhibitor, single point]"
COc1ccc(CCNC(=O)C(=O)NCC(c2ccc3c(c2)OCO3)N2CCOCC2)cc1OC (stereo not given),inactive: -9.11%,–
CCOc1ccc(S(=O)(=O)NCCC(=O)OCC(=O)N2CC(=O)Nc3ccccc32)cc1,inactive: -1.46%,–
COCCCN(CC(=O)Nc1ccc(N2CCOCC2)cc1)S(=O)(=O)c1ccc(Cl)cc1,–,"inconclusive: 11.2 µM [inhibitor, partial curve]"
COc1ccccc1CC(Cc1nc2ccccc2[nH]1)c1nc2ccccc2[nH]1 (stereo not given),–,inactive
O=C(NNC(=S)NC(=O)c1ccccc1[N+](=O)[O-])c1ccccc1[N+](=O)[O-],inactive: -12.1%,–
CS/C(N)=N/N=C/c1cc(Br)cc(Br)c1O,–,"inconclusive: 4.47 µM [inhibitor, full curve]"
N#Cc1c2c(c(-c3ccccc3)[nH]c1=O)CCCC2,inactive: -3.54%,–
COc1ccc2cc(CN(CC3CCCO3)C(=S)Nc3ccccc3)c(=O)[nH]c2c1 (stereo not given),inactive: -13.3%,–
CCOc1ccc2nc(C)cc(Nc3ccc(N4CCOCC4)cc3)c2c1,–,"inconclusive: 12.6 µM [inhibitor, partial curve]"

SMILES,"activity, negative = inhibition",Potency
COc1ccccc1N1CCN(C(=O)c2cc(-c3ccc(F)cc3)on2)CC1,–,"inconclusive: 20 µM [inhibitor, partial curve]"
Cc1ccc2nc(-c3ccc(NC(=O)COc4ccccc4)cc3)sc2c1,–,"inconclusive: 0.891 µM [inhibitor, full curve]"
Cc1ccc(C(=O)O/N=C(\N)c2cccc([N+](=O)[O-])c2)cc1,–,"inconclusive: 12.6 µM [inhibitor, partial curve]"
O=c1oc2ccccc2c(O)c1/C=C1\C=Nc2ccccc21,–,"inconclusive: 14.1 µM [inhibitor, partial curve]"
CCOC(=O)C1C(=O)C=C(c2ccc([N+](=O)[O-])cc2)CC1c1ccccc1 (stereo not given),–,"inconclusive: 28.2 µM [inhibitor, partial curve]"
N#CC1=C(N)C(C#N)(C#N)[C@H](c2cccnc2)[C@H]2CN(C(=O)OCc3ccccc3)CC=C12,–,active: 15.8 µM
Cc1ccc(CSC2=Nc3ccccc3C3=NC(CC(=O)NC4CCCCC4)C(=O)N23)cc1 (stereo not given),–,"inconclusive: 39.8 µM [inhibitor, single point]"
CN(Cc1ccccc1)S(=O)(=O)c1ccc(NC(=S)NC(=O)C(C)(C)C)cc1,inactive: -17.4%,–
COc1ccc(-c2nc(NC(=O)c3ccccc3)sc2-c2ccc([N+](=O)[O-])cc2)cc1,–,"inconclusive: 17.8 µM [inhibitor, partial curve]"
COc1ccc(CN(C)c2nc(-c3cccnc3)nc3ccccc23)cc1OC,–,"inconclusive: 7.94 µM [inhibitor, partial curve]"
COCCNc1nc(-n2nc(C)cc2C)nc2sc3c(c12)CCCC3,–,"inconclusive: 17.8 µM [inhibitor, partial curve]"
CN(CC(=O)Nc1ccc(N2CCOCC2)cc1)CC(=O)Nc1ccc(Cl)cc1[N+](=O)[O-],–,"inconclusive: 28.2 µM [inhibitor, partial curve, poor fit]"
O=c1[nH]snc1N1CCOCC1,–,"inconclusive: 31.6 µM [inhibitor, single point]"
CCOc1ccc(NC(=O)C2CCCN(S(=O)(=O)c3ccc4[nH]c(=O)ccc4c3)C2)cc1 (stereo not given),inactive: -5.71%,–
Cc1cc(C)cc(OCc2ccc(C(=O)Nc3ccccc3F)o2)c1,inactive: -12.3%,–
COc1ccc(C2CC(=O)C(C(c3ccc(O)cc3)C3C(=O)CC(c4ccc(OC)cc4)CC3=O)C(=O)C2)cc1 (stereo not given),–,"inconclusive: 28.2 µM [inhibitor, partial curve, poor fit]"
CCSc1nnc(NC(=O)COc2ccc3ccccc3c2)s1,–,"inconclusive: 0.631 µM [inhibitor, full curve]"
O=C(Nc1ncc2c(n1)CC(c1ccco1)CC2=O)c1ccco1 (stereo not given),–,"inconclusive: 12.6 µM [inhibitor, partial curve]"
COc1ccc(/C(C)=C2\SC(=S)N(CCC(=O)O)C2=O)cc1,–,"inconclusive: 22.4 µM [inhibitor, single point]"
CC(=O)c1ccc(OCCCN2CCCCC2)cc1,inactive: -0.441%,–
CNC(=O)c1ccc(Nc2nnc(-c3ccc(C)c(S(=O)(=O)N4CCCCC4)c3)c3ccccc23)cc1,inactive: -8.18%,–
Cc1ccc(-n2ncc3c(N4CCN(C)CC4)ncnc32)cc1Cl,inactive: -12.8%,–
